Sequences with one replicate were seen in a single cluster, so their values are uncertain.
System: ATP
Assay: switch fluorescence ratio, 500 uM ATP over buffer (Cy3 cluster intensity, sum of 5 cycles each) (fold (ratio)); higher = stronger signal-on switching upon ATP binding; sequences stand for … in TCGTCGGCAGCGTCAGATGTGTATAAGAGACAGTTTTTTTTTTTTTTTTTTTTTTTTT…TC
Conditions: aptamer strand: ATP DNA aptamer (quencher-CACCTGGGGGAGTATTGCGGAGGAAGG + anchor), 100 nM annealed; ATP concentration: 500 uM; one replicate
Summary of the method: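 Five buffer/ATP imaging cycles were run on Cy3-labelled switching-strand clusters on a modified Illumina MiSeq flow-cell, with NaOH stripping and re-annealing between cycles. In each cycle, clusters annealed to 100 nM quencher-labelled ATP aptamer were imaged in selection buffer, then after 15 min with 500 uM ATP at 22 °C. Per cluster, the fluorescence ratio is summed target-cycle over summed buffer-cycle Cy3 intensity, averaged per switch-domain sequence. Only clusters within 100-1000 RFU were kept.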
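Note: ATP exposure 15 min at 22 °C before imaging.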

Sequence	switch fluorescence ratio
AATAAGAAGA	0.993
AGTGCCATGT	0.986
ATGCACACCA	1.13
GGGCACATCG	1.12
CTTGTGATA	1.04
GATAACCG	1.05
TTAGGATTAG	0.987
AAGGGTATAC	1.03
CCTGGAATGA	1.06
CGGTCCATAA	1.04
ACGCGCGCCA	1.01
ATGTTTAAGA	1.01
ACAGGAGGAC	1.01
CTCGGAAAAG	1
ACGTAGGATA	1.13
GCCCCTGTCC	1.06
CCTTAAGGGG	1.09
GGAATTGATC	0.973
CTGATCCTTC	1.1
AACGGCAATT	1.33
CACATATC	1.07
TTGGTGTGCG	0.976
GACACGGTG	1
GTGCCCCCAT	1.08
TTGGAATCTA	1.02
ATAAACGGAT	1.01

Sequence	switch fluorescence ratio
CAGGTGGGTT	0.973
CACCGCGCAA	1.91
AAGCTAGGGC	0.992
CGCATTTTCC	2.73
TACCCACGCG	1.33
TCGAGCCGGG	0.937
CTGTCGAGGG	0.968
CTGTCTTTCA	0.95
TACGGTTAA	1.14
TAGTCCTGAT	1.02
AGGGGAGAAG	0.955
GTCGTAAACG	1.01
TGTTAGGCGC	1.03
TATGGATCCC	0.973
CCGTTATGGG	0.992
AAATGTACTT	0.997
GTGAACACCG	0.994
CTGTTCGGGC	0.956
TATGCATCGG	0.955
GTTTGCATGT	0.944
GCCGTTCCAT	1.01
CGGTAGCATA	1.75
ATTCGTGTA	0.985
TTCTTGGGGA	0.988
CCTACCACTT	1.16
GAGGGCTGAC	1.16

Sequence	switch fluorescence ratio
AAATATAACA	0.998
ATTCTTGGAC	0.979
TATATAGTGA	0.967
TTCGATCACA	0.983
GACGCAGGGA	2.3
CCGCGGCAGG	1.74
GTTGTCGCG	0.986
CCGAATGGG	0.985
TGTTGTCGCA	1
TAAATTGGGA	1.01
CCGCTCAGGG	1.44
TGTCGACCGA	0.994
ATGCTCGGGC	0.985
GGATGGAGAC	1.02
GCGCACGGGC	0.978
CCGAGTGTTA	1.2
ATGATAATTC	1.04
GCAGTCGTCA	1.04
AGTTGATCAG	0.954
AAACCTGCGG	1
CCCATCCCCC	1.3
CGTAGAATCG	1
AGGTTTGAAA	1.67
GGATTATAGG	1
CAAGGGTTTC	1.02
ACTACATTGC	1.14

Sequence	switch fluorescence ratio
GCGTCGCCTA	0.917
TGATCCTCTT	1.01
TCAAGTTCCT	1.02
GCTAAACCCG	1.03
CGCACAATTG	0.987
AGGGGTATCA	1.01
TACACAGATC	0.979
CCTGTAAGCC	1.42
AGCATGTAGG	0.993
TACTGTTCTC	1.02
TTTGACCCTG	0.944
TAAGGAGGTA	1
ACTGTAATAA	1.15
AGCCCTATCG	0.972
GAATGAATAT	0.989
ACACTCGCTT	1.03
CACTCAGCCG	1.07
TGGAGGGTCA	0.998
GGGGGTAGAA	0.99
GCTACAATGC	1.45
GGTATCTTTA	1.01
CATAGTAGTT	1.04
CTGTTATTGC	1.04
TATGGGGAT	0.998
TTTGGAAACC	0.99
ACCGGTGAGG	0.969

Sequence	switch fluorescence ratio
ATGTTTGGTC	0.987
GCGGTGCGAC	1.15
TGAGGAGTGT	0.975
CATTGCTGAG	0.982
TGGATCAGAT	0.994
TTTTAATTC	0.974
TAAGGGTAG	0.995
GGTATTTTCT	1.02
TTCGCAAAGT	1.04
GCTTTCTTCG	1.2
GGCTGCCAGG	1.03
CTATTCTACC	1
AGATAAATGA	0.992
CGCGCACCGG	0.991
ATCAGGCCAG	1.07
TCTCGAAGAT	1
GTTATATC	0.955
GGTCCCGAGC	1.07
TAGAGAGGTT	1.01
CACAGTGGG	1.07
GCAGGGCTAA	0.984
TCCGTTGACC	1.19
TGTTGTGAG	1
ATCATGTGTG	0.98
AGTCGTTTAG	0.984
AGGTCGATGG	0.994

Sequence	switch fluorescence ratio
AATAGGGGCC	0.991
GTTTATATAG	1.05
AGTGTACAGA	1.06
GGAACAATG	0.988
TCAGTTGGCG	0.994
AGTGTGTCGC	0.919
TAAGGTCCAG	1.02
TGCTGTAGTA	1.02
TTAAGACGAG	0.981
GTAAATGTAT	1
TAACACAACT	1.07
CATGGCTTTT	1
AAAATGGGTC	0.963
AAGGCTGGAA	1.01
GTCCTTTATG	0.937
ACTATCGGAC	1.11
GTAGTAGTGG	0.98
AATTGTTAAA	1
TTTAAGTCAT	1.01
TAAGTGGTAC	1.09
TGGTCCGGTA	1
ATTAGGTAAG	1.03
GTATTGTATA	0.979
